Results taken from the supplement of paper PMC11417369.
Some of the results follow.

system: PfHDP1 homeodomain (GST-tagged); assay: gcPBM binding intensity (ln(normalized median fluorescence intensity)); higher = stronger DNA binding
Method in brief: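 An Agilent 4 × 180k array of primer-extended double-stranded 36-bp intergenic genomic probes, with negative controls, was incubated for 1 h with GST-tagged P. falciparum DNA-binding domains expressed in E. coli. Alexa488 anti-GST antibody detected bound protein, scanned at 488 nm. Binding intensity is the highest Masliner-normalised natural-log median intensity across replicate spots of either probe orientation.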

Row | Sequence | gcPBM binding intensity (ln)
1 | CCTTTTAAGAGTTGCACACGTACAAAAAAAAAAAAA [CACACA_site3492] | 9.57
2 | ACACATAAATGTATATATATATAAATATATGTATGT [CACACA_negctrl_site1532] | 6.48
3 | GGCGATATAGAACTACGTACTTATACAAATTATAAT [XGTACX_site2307] | 6.48
4 | AATAATAAAAAATACGCACACATGTAAACGTATGTT [CACACA_site3336] | 6.99
5 | GTATATATATATTTATGTACTTACCTACATAATTAT [XGTACX_site4435] | 6.63
6 | TAAATAAATTTGCACTGTACGCAAAAAAAAAAAAGA [XGTACX_site8781] | 9.28
7 | AAAGGGGAGATATGAACACACAAAAAAAAAATATAT [CACACA_site7378] | 6.5
8 | AGAAAGGATATAAGCGTAGCTATATCATAAAAAATG [GTGCAC_negctrl_site332] | 6.23
9 | AATATTTACAGACATGCGCACACATAAATAAATAAT [CACACA_site8760] | 7.33
10 | AAATAAAATTTTTGTTGTACTTATTTTTAGTATACT [XGTACX_site4254] | 6.34
11 | TATATATATTTTAAATGTACTTATAAATTACCACTT [XGTACX_site5673] | 6.36
12 | AAAAATAAAATATATATATATATATATATATATATA [CACACA_negctrl_site58] | 9.46
13 | AATAAATACATACATACATGCATACATATATCTCAA [TGCATGCA_site1040] | 6.53
14 | TATTTTTATATATATACACACTTACAGATATATATT [CACACA_site5905] | 6.94
15 | TGAAAAAAAAAATGCACACGCATACATATAATATGT [CACACA_site641] | 9.34
16 | AAACATAAATATGAGAGTACAAAAAATATTATGAAT [XGTACX_site151] | 6.86
17 | TTATAATATATTACAAGTTCATTCATATAATATGTT [CACACA_negctrl_site1695] | 6.35
18 | ATCTCTTAAATTTTACGTACTTATTTTATCTTCTTA [XGTACX_site8877] | 6.87
19 | ATATTATATATATGATGTACTAAATATATTATTATG [XGTACX_site1703] | 6.45
20 | ATGTTATAAAATATATGTACATATTTATATAAAATA [XGTACX_site5766] | 6.6
21 | ATATATTTATATAAATGTACACGTGAATATATAATA [XGTACX_site1166] | 7.17
22 | TATATAAAAAGTAATTGTACATATATATATATATAT [XGTACX_site7953] | 9.26

Row | Sequence | gcPBM binding intensity (ln)
23 | TTTATATTCTTTTTTTAACACACAAAAAAAATAAAA [CACACA_site8574] | 6.3
24 | TCTATTAATGAATATACACACATTATATATATATAT [CACACA_site5410] | 9
25 | TATTTTATATTATCATGTACAAAAAAAAAGAAAAGA [XGTACX_site5379] | 6.58
26 | ATAAATAATTAGAATTGTACAAAAATTATATATATG [XGTACX_site5107] | 6.56
27 | ATATGTAAAATGAAGATACATACATACATACATACA [CACACA_negctrl_site715] | 7.53
28 | AATAAATTAGAAGGATGTACTTTGTTTAATATAGAG [XGTACX_site1943] | 6.33
29 | AGGTTATATATGAACAAAAATAAAATATTCATAGGC [TGCATGCA_negctrl_site46] | 6.5
30 | TAATATAATCTGAGTGCACACAAATAAATAAACATA [CACACA_site8032] | 11.2
31 | AAAAGGAACGGACACACACACATATATATATATATA [CACACA_site5894] | 9.45
32 | TATGCAAATTAATAATGTACGAAATATTTATAATTT [XGTACX_site2324] | 6.73
33 | ATTTTGTATTGACGCTGTACAAACATTAATATAATA [XGTACX_site2496] | 6.45
34 | TTTTGCGTAGCAACGAGGTTTTTAAAAATGTAACCA [GTGCAC_negctrl_site691] | 6.42
35 | AACAAAATAAAACACACACACAAATGTACATATATA [CACACA_site2424] | 7.01
36 | TAGAAGCATCATTTTACACACATGCAAATGTAAACT [CACACA_site6973] | 6.66
37 | GTATATTTAAATAAAAGTACGTAAAGATATATTTAA [XGTACX_site8087] | 6.53
38 | ATAATATGCAATATTACACACAATTCATCATTTTTT [CACACA_site7477] | 8.46
39 | TTTTTTTTTATTATCATGCACACATTTTTTTTTTTT [CACACA_site2254] | 9.1
40 | ACATATGAATATTTTTGTACGTATATTGTTATTCTT [XGTACX_site4720] | 6.85
41 | AAAAAAAAAAAACACACACACACATACAAAATATAT [CACACA_site1448] | 6.76
42 | AATTATACGAAATAAAACTTAATAGACAAAAAATTA [CACACA_negctrl_site1384] | 6.3
43 | GTAATTTAAATAACAAGTACTAATGTGGATAAGCAG [XGTACX_site1163] | 7.27
44 | GAACAAAAGGAATGTTGTACATAAAAAATGAAAAAT [XGTACX_site3929] | 6.66
